This is one part of the list. Values were computed here from the reads of four pooled replicates and scatter widely.
Biological target: T1, Pho4 (S. cerevisiae) (UniProt P07270)
T1 sequence: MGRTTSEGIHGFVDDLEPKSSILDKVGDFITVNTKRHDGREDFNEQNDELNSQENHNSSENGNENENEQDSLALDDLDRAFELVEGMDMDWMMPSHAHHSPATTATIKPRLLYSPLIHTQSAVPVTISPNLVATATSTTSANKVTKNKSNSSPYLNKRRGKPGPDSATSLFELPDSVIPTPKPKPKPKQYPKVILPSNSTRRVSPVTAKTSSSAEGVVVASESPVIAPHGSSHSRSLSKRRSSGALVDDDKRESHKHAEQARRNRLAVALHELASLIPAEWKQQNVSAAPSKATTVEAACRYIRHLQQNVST
Assay: relative binding free energy (BET-seq); higher = weaker binding
Conditions: reference: library average

Sequence	relative binding free energy
GTAATCACGTGTGTCT	0.11 kcal/mol
CCTGGCACGTGTAGTG	-0.1 kcal/mol
AATCACACGTGTGGTT	0.18 kcal/mol
CGGGACACGTGAGTAT	0.32 kcal/mol
AGAGGCACGTGCATGT	-0.05 kcal/mol
TGTGGCACGTGCGTTT	-0.05 kcal/mol
TGATTCACGTGTTGAA	0.31 kcal/mol
CATGTCACGTGGATTG	0.16 kcal/mol
GCGTACACGTGACGGG	0.3 kcal/mol
GTGTCCACGTGGGGCA	-0.21 kcal/mol
GGATGCACGTGAGTGT	0.24 kcal/mol
TTGCGCACGTGGTCAG	-0.11 kcal/mol
TCAGTCACGTGCGGTA	0.1 kcal/mol
GGTGCCACGTGGGCAG	-0.05 kcal/mol
CTGTTCACGTGGGCTG	0.12 kcal/mol
AGGGGCACGTGAGTGT	0.05 kcal/mol
GTTGGCACGTGTTCGT	0.03 kcal/mol
AGTCTCACGTGAGTTT	0.43 kcal/mol
CTGAGCACGTGTTGCG	-0.11 kcal/mol
ATTATCACGTGGCTTG	-0.03 kcal/mol
TTAAGCACGTGATTGC	0.06 kcal/mol
AAGTGCACGTGTAAGT	0.07 kcal/mol
AGGAACACGTGTGGTA	-0.03 kcal/mol
GAATTCACGTGTGAAT	0.6 kcal/mol
GGTTGCACGTGTCTTT	0.15 kcal/mol
CTGGGCACGTGATGGT	0.04 kcal/mol

Sequence	relative binding free energy
AAGATCACGTGTGATG	0.2 kcal/mol
TACTTCACGTGAGTGG	0.21 kcal/mol
TATTGCACGTGTAGGT	-0.02 kcal/mol
GGGGCCACGTGTTCTG	-0.1 kcal/mol
TTGGACACGTGAGAGG	0.22 kcal/mol
GCGGGCACGTGTGGTC	-0.12 kcal/mol
GGCTGCACGTGCGGTT	-0.01 kcal/mol
ATTCTCACGTGTTTTC	0.25 kcal/mol
GTGTGCACGTGAGACA	0.24 kcal/mol
GTGAACACGTGTTGGG	0 kcal/mol
GGAGTCACGTGAATAG	0.39 kcal/mol
GGGTGCACGTGGCATT	-0.07 kcal/mol
AAGCTCACGTGCGGGT	0.19 kcal/mol
GTAATCACGTGTTGAG	0.32 kcal/mol
TGGTTCACGTGGGGGT	0.2 kcal/mol
AGTGCCACGTGTTGTA	0.01 kcal/mol
CCGGGCACGTGGCGGG	-0.14 kcal/mol
TGTAACACGTGAGAAT	0.51 kcal/mol
AATATCACGTGTGTGG	0.09 kcal/mol
ATTGGCACGTGATATT	-0.05 kcal/mol
TGAGGCACGTGGAGTC	-0.04 kcal/mol
GTGTACACGTGATATT	0.28 kcal/mol
TCGTGCACGTGAGATG	0.2 kcal/mol
CATTACACGTGGGGGT	-0.08 kcal/mol
CTCGGCACGTGAGGTA	0.14 kcal/mol
TTGGTCACGTGTGTCA	0.19 kcal/mol

Sequence	relative binding free energy
AGTTTCACGTGAGTCA	0.38 kcal/mol
TTCGACACGTGGTGCT	0 kcal/mol
GAGGTCACGTGGAGTA	0.06 kcal/mol
AGCGTCACGTGGAGGA	0.07 kcal/mol
GGTTACACGTGATTTG	0.22 kcal/mol
GACGGCACGTGCGGTA	0 kcal/mol
AAATGCACGTGTTGCG	-0.03 kcal/mol
TTTCACACGTGTCTGG	0.03 kcal/mol
GGTAACACGTGAAGGT	0.31 kcal/mol
AGAGGCACGTGGGTTA	-0.21 kcal/mol
TTGACCACGTGGTTGT	-0.18 kcal/mol
TAAATCACGTGGTGTG	0.07 kcal/mol
GTATTCACGTGTTTTA	0.14 kcal/mol
AAGTGCACGTGTTATG	-0.11 kcal/mol
TGGATCACGTGTCGAG	0.16 kcal/mol
GTTTACACGTGTAGGG	0.24 kcal/mol
AGTTTCACGTGTTTTA	0.31 kcal/mol
ATCGTCACGTGAGTGG	0.21 kcal/mol
ACAGGCACGTGTCGGG	-0.03 kcal/mol
TTCTTCACGTGAATTG	0.35 kcal/mol
AGGGGCACGTGTGTGA	-0.23 kcal/mol
TTATTCACGTGGTATT	0.25 kcal/mol
TGGTCCACGTGGTTAT	0.06 kcal/mol
GGAGCCACGTGGGTTA	-0.19 kcal/mol
GATTTCACGTGGTTGA	0.26 kcal/mol
AATTTCACGTGTATTC	0.28 kcal/mol

Sequence	relative binding free energy
GTATACACGTGTATGA	0 kcal/mol
GGTAACACGTGGCGGA	0.09 kcal/mol
TGAAGCACGTGTATTG	-0.1 kcal/mol
TGATACACGTGTTCTT	0 kcal/mol
TTGTGCACGTGAACTT	0.1 kcal/mol
CCATTCACGTGGGGGA	0.26 kcal/mol
AGTATCACGTGTCTGG	0.22 kcal/mol
GATTGCACGTGTTCGG	0.16 kcal/mol
GAGTTCACGTGATGTG	0.35 kcal/mol
TAATGCACGTGCATGG	-0.07 kcal/mol
GTTTGCACGTGCTATG	-0.01 kcal/mol
GGTCACACGTGAGTAT	0.3 kcal/mol
TAGATCACGTGTGAGT	0.24 kcal/mol
GATCACACGTGTGGGT	0.15 kcal/mol
GGGTGCACGTGAGAAT	0.17 kcal/mol
TATAGCACGTGGGGAG	-0.25 kcal/mol
GAAATCACGTGGGTTG	0.03 kcal/mol
TGTCGCACGTGTAACG	0.27 kcal/mol
TTGATCACGTGGTGGC	0.04 kcal/mol
CCGTGCACGTGTGGGT	-0.05 kcal/mol
GTCGACACGTGGTGTA	-0.07 kcal/mol
TGGGTCACGTGAGCCT	0.18 kcal/mol
AGCTTCACGTGAATTT	0.39 kcal/mol
GGCGGCACGTGTGGGA	0 kcal/mol
CTGGTCACGTGCGTCG	0.05 kcal/mol
CGGGGCACGTGAGCGA	0.08 kcal/mol

Sequence	relative binding free energy
GGCGTCACGTGCGGAG	0.08 kcal/mol
TTTGACACGTGATTGT	0.19 kcal/mol
GTCCGCACGTGGGGTA	-0.13 kcal/mol
TTCATCACGTGATTTA	0.18 kcal/mol
GTAGTCACGTGAATAT	0.27 kcal/mol
AGAGTCACGTGGCATG	0.15 kcal/mol
TGTTTCACGTGGGCAT	0.06 kcal/mol
TGGGTCACGTGTCATA	0.18 kcal/mol
TTTGTCACGTGGCGCG	0.01 kcal/mol
ATAGTCACGTGAAGGA	0.48 kcal/mol
AGAGTCACGTGTCTGT	0.04 kcal/mol
TCTGTCACGTGAAAGT	0.35 kcal/mol
GGATTCACGTGGTTGC	0.33 kcal/mol
ATTATCACGTGAGATT	0.26 kcal/mol
AGAATCACGTGTTTCG	0.22 kcal/mol
AGTGTCACGTGTGGTA	0.12 kcal/mol
TAGGGCACGTGAGGGA	0.19 kcal/mol
GGCGGCACGTGGATCG	-0.07 kcal/mol
TCGGGCACGTGGGAAG	-0.11 kcal/mol
GAGGGCACGTGTAAGG	-0.03 kcal/mol
AAGTGCACGTGGATTA	-0.11 kcal/mol
GGTATCACGTGTTGAG	0.24 kcal/mol
GGCTTCACGTGGTTGT	0.24 kcal/mol
GTATTCACGTGGTATA	0.17 kcal/mol
GTAAGCACGTGCATGT	-0.01 kcal/mol
AGGGTCACGTGGCAGA	-0.04 kcal/mol

Sequence	relative binding free energy
CCTGGCACGTGTTAGT	0.01 kcal/mol
TTTGACACGTGAGACT	0.23 kcal/mol
GGGTGCACGTGTTGGG	0.08 kcal/mol
TATTACACGTGGAAGG	0.15 kcal/mol
GAGAGCACGTGGTATA	-0.19 kcal/mol
GTTCTCACGTGTGTAT	0.23 kcal/mol
TTTGTCACGTGATGTT	0.24 kcal/mol
CATTCCACGTGTGGGG	0.12 kcal/mol
CTAGTCACGTGTGCTG	0.07 kcal/mol
AGGTACACGTGTGTGA	0.09 kcal/mol
GGTGACACGTGCCGTT	0.1 kcal/mol
TTTTCCACGTGGGGGC	-0.1 kcal/mol
TGTCTCACGTGGTAAT	0.15 kcal/mol
CGTATCACGTGGGCCG	0.24 kcal/mol
GGGAGCACGTGTAGGC	-0.1 kcal/mol
CCAAGCACGTGGGGGT	-0.23 kcal/mol
TTGAACACGTGCTTTT	-0.07 kcal/mol
TGCCGCACGTGGGGAG	-0.18 kcal/mol
AGTTTCACGTGTAGTT	0.14 kcal/mol
GTGAACACGTGAAGAG	0.4 kcal/mol
CTTGGCACGTGATCGG	-0.09 kcal/mol
TGCGCCACGTGTTAGG	-0.04 kcal/mol
TGTGGCACGTGTTAGG	0.02 kcal/mol
CTAGTCACGTGGTAAG	0.14 kcal/mol
CGTGTCACGTGTTATA	0.09 kcal/mol
CTAGTCACGTGTGGTA	0.1 kcal/mol

Sequence	relative binding free energy
TTATGCACGTGTGGTT	0.05 kcal/mol
TTAGACACGTGGGAGG	-0.16 kcal/mol
GTAGTCACGTGAATGG	0.41 kcal/mol
CGATGCACGTGAGAGG	0.16 kcal/mol
CGGGTCACGTGAGGTT	0.35 kcal/mol
GGTGGCACGTGACTGA	-0.04 kcal/mol
TGTTTCACGTGACATA	0.34 kcal/mol
AATTGCACGTGAGGAA	0.2 kcal/mol
AGTATCACGTGGATTT	0.3 kcal/mol
ACGATCACGTGGGGTG	-0.04 kcal/mol
TTAGTCACGTGTGCGC	0.14 kcal/mol
AGTTTCACGTGTCGGC	0.33 kcal/mol
AATATCACGTGGTTCT	0.06 kcal/mol
AGTTACACGTGTGAAT	0.18 kcal/mol
ATGGTCACGTGAGTCG	0.3 kcal/mol
CGTGTCACGTGCTGGT	-0.08 kcal/mol
TTATGCACGTGAGACG	0.11 kcal/mol
TTGTGCACGTGGAATC	0.05 kcal/mol
GAGAGCACGTGCGTGT	-0.06 kcal/mol
GAACTCACGTGGGTGT	0.2 kcal/mol
TTCTACACGTGTTGGA	0.14 kcal/mol
GCGTACACGTGTTGGA	0.16 kcal/mol
AAATACACGTGATTGG	0.15 kcal/mol
AGGATCACGTGGGATG	0.05 kcal/mol
CGTAACACGTGGGTGC	-0.12 kcal/mol
TGGCGCACGTGAGGGC	0.2 kcal/mol

Sequence	relative binding free energy
GGAAGCACGTGAGTGC	0.19 kcal/mol
CTTTTCACGTGGCTTG	0.18 kcal/mol
ATTGTCACGTGTTACT	0.05 kcal/mol
GAGTACACGTGTTGTA	0.11 kcal/mol
AGGTCCACGTGTATGT	-0.07 kcal/mol
CGGATCACGTGTTGTT	0.22 kcal/mol
TTGTGCACGTGATTCG	0.04 kcal/mol
GGTGACACGTGGAAGT	0.12 kcal/mol
TAAATCACGTGATGTA	0.22 kcal/mol
ACGGACACGTGGGGGC	-0.1 kcal/mol
AGGATCACGTGTGTGG	0.14 kcal/mol
TGGAACACGTGTGGTC	0.11 kcal/mol
GTGGGCACGTGGGGTT	-0.1 kcal/mol
GTATTCACGTGAGATG	0.36 kcal/mol
CCTGTCACGTGCGGGT	0.05 kcal/mol
TGTGACACGTGTTGCG	0 kcal/mol
GTTTGCACGTGACTTG	0.06 kcal/mol
TGGGGCACGTGGCACG	-0.19 kcal/mol
TGAGTCACGTGATGAT	0.39 kcal/mol
GGTGGCACGTGGACCG	-0.16 kcal/mol
GTTGACACGTGGCTGG	0.09 kcal/mol
GTTGACACGTGGGTAG	-0.05 kcal/mol
TGGAACACGTGTTGTC	-0.06 kcal/mol
CGGGGCACGTGGTCAG	-0.26 kcal/mol
AAGGTCACGTGGAATA	0.25 kcal/mol
GCAGGCACGTGGGTCT	-0.22 kcal/mol

Sequence	relative binding free energy
TAGGACACGTGTACTT	0.05 kcal/mol
TGGAGCACGTGTTGGA	-0.04 kcal/mol
GATGGCACGTGTTTGC	-0.1 kcal/mol
GTCATCACGTGGTGTT	0.04 kcal/mol
AGCAGCACGTGTGTTA	-0.03 kcal/mol
TGAATCACGTGTGCAG	0.13 kcal/mol
GAAGTCACGTGGAGGC	0.15 kcal/mol
TTTGTCACGTGCTAAT	0.21 kcal/mol
TCTCACACGTGTTGTG	0.11 kcal/mol
GTGAGCACGTGTATTT	-0.06 kcal/mol
ATTGGCACGTGGAATA	-0.16 kcal/mol
TGGGGCACGTGGTACA	-0.32 kcal/mol
ATGGGCACGTGAAGAA	0.23 kcal/mol
ATGTACACGTGATCTT	0.09 kcal/mol
GCAGTCACGTGGGCTT	0.01 kcal/mol
AGTCTCACGTGGTGGT	0.05 kcal/mol
GGTTCCACGTGTTGTT	0.23 kcal/mol
AAATTCACGTGTATGT	0.33 kcal/mol
GATTACACGTGGTTGA	0.07 kcal/mol
ATTAGCACGTGCTGTG	-0.09 kcal/mol
AAGACCACGTGGTGTT	-0.05 kcal/mol
TCTATCACGTGATTTT	0.29 kcal/mol

Reference: the BET-seq Pho4 binding data (Le et al. 2018)
